PubChem BioAssay AID624418 (National Center for Advancing Translational Sciences (NCATS), 2012)
Hit rate of the full screen: of about 410,000 compounds, about 530 (0.13%) were called active. This list was built around the results that the source calls inconclusive (neither active nor inactive); the mix of calls is not that of the screen. Calls come from the whole dose curve; as a rule, active = well fitted inhibition curve with a large enough effect; inconclusive = small, poorly fitted or top-dose-only effect, or another doubt; inactive = no such curve, though single readings can be large or run the other way. Where the call is inconclusive, the potency comes from a doubtful curve fit.

Assay: qHTS of GLP-1 Receptor Inverse Agonists: Cytotox Screen
Details: HEK293 cAMP-luciferase reporter cells, luminescence, 24 h; activity change, negative = inhibition: at 38.3 µM (top of the series) unless noted
Outline: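 1536-well qHTS counterscreen of the MLSMR; 200 cells/uL, 12 h pre-incubation, 23 nL cpd, 24 h at 37 deg C 5% CO2, luciferase detection reagent, 12 min RT, luminescence. Inhibition = undesired.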
% is set by controls: 0 for no effect and ±100 for the full control effect; potency is the fitted concentration of half-maximal effect.

Q: Which Potency does the source give for `Cn1cnc(S(=O)(=O)NCc2ccccc2)c1` here?
A: inconclusive: 2.51 µM [inhibitor, full curve]

Q: With `Nc1nonc1-n1nnc(C(=O)N/N=C/c2ccccc2Cl)c1CSc1ccccc1` as the molecule, how does the Potency read?
A: inconclusive: 20 µM [inhibitor, single point]

Q: With `CN1CCc2c(sc3c2C(=O)NC(c2ccc(OC(=O)c4ccc(C(C)(C)C)cc4)cc2)N3)C1` (stereo not drawn) as the molecule, how does the Potency read?
A: inactive

Q: For `O=C(Nc1cccc(Cl)c1)c1ccc(F)c(S(=O)(=O)NCc2cccs2)c1`, which Potency is on record?
A: inconclusive: 0.447 µM [inhibitor, full curve, poor fit]

Q: For `O=C(CCl)Nc1ccccc1Sc1ccc(Cl)cc1`, which Potency is on record?
A: inconclusive: 8.91 µM [inhibitor, partial curve, poor fit]

Q: Which Potency does the source give for `O=C(CCCCCBr)N1CCC(CC2CC(c3cccc(Br)c3)=NO2)(C(=O)NCC2CCCCC2)CC1` (stereo not drawn) here?
A: inconclusive: 11.2 µM [inhibitor, partial curve, poor fit]

Q: For `Cc1ccc(Oc2c(C(F)(F)F)oc3c(CN4CCC(C)CC4)c(O)ccc3c2=O)cc1`, which Potency is on record?
A: inactive

Q: For `COC(=O)c1ccc(CSc2nc3ccccc3c(=O)n2-c2ccc(OC)c(OC)c2)o1`, which Potency is on record?
A: inconclusive: 10 µM [inhibitor, partial curve]

Q: For `CCOc1ccc(C(=O)CCN2CCCCCC2)cc1`, which Potency is on record?
A: inconclusive: 12.6 µM [inhibitor, partial curve, poor fit]

Q: Which Potency does the source give for `COc1cc(Br)cc(/C=N/NC(=O)Cc2ccccc2)c1O` here?
A: inconclusive: 2.24 µM [inhibitor, full curve, poor fit]

Q: For `COC(=O)c1[nH]c2cccc(Cl)c2c1NC(=O)CN1CCN(CCO)CC1`, which Potency is on record?
A: inactive

Q: With `CCOC(=O)c1cnc(-n2nc(C)cc2C)nc1NCc1ccccc1` as the molecule, how does the Potency read?
A: inconclusive: 4.47 µM [inhibitor, full curve]

Q: With `CC1CCc2c(C(=O)NCC3CCCO3)csc2C1` (stereo not drawn) as the molecule, how does the Potency read?
A: inactive

Q: With `Cc1ccc(Cc2c(C3CCCCC3)nc3ccc(C)cn23)cc1` as the molecule, how does the Potency read?
A: inconclusive: 14.1 µM [inhibitor, single point]

Q: With `Cc1c(Cl)cccc1NC(=O)CN1C(=O)c2ccccc2Sc2ncccc21` as the molecule, how does the Potency read?
A: inactive

Q: With `CC1CCc2c(C(=O)NCCN3CCOCC3)csc2C1` (stereo not drawn) as the molecule, how does the Potency read?
A: inactive

Q: Which Potency does the source give for `Cc1cc(C)cc(NC(=O)Nc2ccc(-n3ccc(C(F)(F)F)n3)cc2)c1` here?
A: inconclusive: 12.6 µM [inhibitor, partial curve, poor fit]

Q: For `O=C(N/N=C/c1ccc([N+](=O)[O-])o1)c1cc(-c2cccc(Br)c2)nc2ccccc12`, which Potency is on record?
A: inactive

Q: For `O=C(O)CCCCCN1C(=O)/C(=C\c2cn(-c3ccccc3)nc2-c2cccs2)SC1=S`, which Potency is on record?
A: inconclusive: 28.2 µM [inhibitor, single point]

Q: Which Potency does the source give for `Cc1cccc(/C=c2\s/c(=C\C(=O)C(C)(C)C)[nH]c2=O)c1` here?
A: inconclusive: 17.8 µM [inhibitor, partial curve, poor fit]

Q: For `CCOc1ccc(CCNC(=O)C2CCCN(c3nnc(C)c4c(C)n(-c5ccccc5)nc34)C2)cc1` (stereo not drawn), which Potency is on record?
A: inactive

Q: With `COc1cccc(F)c1C(C[N+](=O)[O-])c1c(N)n(C)c(=O)n(C)c1=O` (stereo not drawn) as the molecule, how does the Potency read?
A: inconclusive: 7.94 µM [inhibitor, partial curve, poor fit]

Q: For `NC(=O)c1c(NC(=O)c2noc3c2CCCC3)sc2c1CCCC2`, which Potency is on record?
A: inactive

Q: With `N=c1n(Cc2ccccc2)c2ccccc2n1CC(O)c1ccccc1` (stereo not drawn) as the molecule, how does the Potency read?
A: inconclusive: 10 µM [inhibitor, partial curve, poor fit]

Q: With `Cc1ccc(Sc2c(C=O)c3ccccc3n2C)cc1` as the molecule, how does the Potency read?
A: inconclusive: 10 µM [inhibitor, single point]

Q: For `Fc1ccc(/C=N/Nc2ccccn2)cc1`, which Potency is on record?
A: inconclusive: 15.8 µM [inhibitor, partial curve, poor fit]

Q: With `CCC1CCCCN1CCNC(=O)C1CCN(S(=O)(=O)c2cccc3nsnc23)CC1` (stereo not drawn) as the molecule, how does the Potency read?
A: inactive

Q: With `CC(C)(C)c1ccc(OCC(O)CN2CCc3ccccc3C2)cc1` (stereo not drawn) as the molecule, how does the Potency read?
A: inconclusive: 28.2 µM [inhibitor, single point]

Q: Which Potency does the source give for `COc1cc(Nc2nc(-c3ccccc3)c3cc(C)ccc3n2)cc(OC)c1OC` here?
A: inconclusive: 11.2 µM [inhibitor, single point]

Q: Which Potency does the source give for `Cc1cc(C)cc(N2C(=O)CS(=O)(=O)C23C(=O)N(Cc2ccc(F)cc2)c2ccc(C)cc23)c1` (stereo not drawn) here?
A: inactive

Q: Which Potency does the source give for `CC1(C(=O)NS(=O)(=O)c2cccc(Cl)c2)CCN1C(=O)Cc1ccc(Cl)cc1Cl` (stereo not drawn) here?
A: inactive

Q: With `O=C(NC1=NCCS1)c1cc(-c2ccc(-c3ccccc3)cc2)nc2ccccc12` as the molecule, how does the Potency read?
A: inactive

Q: For `CCN(CC(=O)NCc1ccc(F)cc1)C(=O)CN1CCN(c2ccc(OC)cc2)CC1`, which activity change, negative = inhibition is on record?
A: inconclusive: -33.1% [inhibitor]

Q: For `O=C(Nc1ncc([N+](=O)[O-])s1)c1ccco1`, which Potency is on record?
A: inconclusive: 14.1 µM [inhibitor, single point]

Q: For `OCc1ccnc2c(O)cccc12`, which Potency is on record?
A: inconclusive: 28.2 µM [inhibitor, single point]

Q: With `CCCCN(C/C=C/c1ccccc1OC)Cc1ccccc1` as the molecule, how does the Potency read?
A: inconclusive: 28.2 µM [inhibitor, single point]

Q: Which Potency does the source give for `S=c1[nH]nc(-c2ccco2)n1/N=C/c1ccc(Cl)cc1` here?
A: inconclusive: 11.2 µM [inhibitor, partial curve]

Q: With `Cc1ccc2c(CNCc3cccs3)c(C(=O)O)n(Cc3ccc(F)cc3)c2c1` as the molecule, how does the Potency read?
A: inconclusive: 17.8 µM [inhibitor, partial curve, poor fit]

Q: For `Cc1cc(C)cc(NC2=NC3(CCCCC3)N=C(N)N2)c1`, which Potency is on record?
A: inconclusive: 7.94 µM [inhibitor, partial curve]

Q: Which Potency does the source give for `C#CCn1c(O)c(N=NC(=O)CNC(=O)/C=C/c2ccccc2)c2ccccc21` here?
A: inconclusive: 11.2 µM [inhibitor, single point]

Q: Which Potency does the source give for `CC1CCC2(CC1)NC(=O)N(CC(=O)N1CCc3ccccc3C1)C2=O` (stereo not drawn) here?
A: inconclusive: 15.8 µM [inhibitor, single point]

Q: Which Potency does the source give for `O=C(CN1C(=O)CCSc2ccc(S(=O)(=O)N3CCCC3)cc21)Nc1cccc(Cl)c1` here?
A: inactive

Q: With `Cc1nc2sc(-c3ccccc3)cc2c(=O)n1N` as the molecule, how does the Potency read?
A: inactive

Q: With `COc1ccc(NC2CCCN(C(=O)c3ccc(C(C)=O)cc3)C2)cc1` (stereo not drawn) as the molecule, how does the Potency read?
A: inconclusive: 28.2 µM [inhibitor, single point]

Q: With `COc1cccc(/C=C2/SC(=S)N(CCCC(=O)Nc3ccc(O)cc3)C2=O)c1` as the molecule, how does the Potency read?
A: inconclusive: 11.2 µM [inhibitor, partial curve, poor fit]

Q: Which Potency does the source give for `COC(=O)c1sc(-c2ccc(Cl)cc2)cc1NC(=O)/C=C/C(=O)O` here?
A: inconclusive: 28.2 µM [inhibitor, single point]

Q: For `O=C1N[C@@H](c2ccccc2)COC(=O)[C@H](Cc2ccc(F)cc2)CC/C=C/C[C@@H]1CC(=O)N(CCO)Cc1ccccc1`, which Potency is on record?
A: inconclusive: 28.2 µM [inhibitor, single point]

Q: For `O=C1/C(=C\c2cc([N+](=O)[O-])ccc2O)SC(=S)N1Cc1ccc(Cl)cc1`, which Potency is on record?
A: inconclusive: 10 µM [inhibitor, partial curve]

Q: Which Potency does the source give for `O=S(=O)(Nc1cccc2ncccc12)c1cccs1` here?
A: inconclusive: 0.794 µM [inhibitor, full curve, poor fit]

Q: For `CCOC(=O)c1cc(-c2ccc(F)cc2)n(CCC(=O)NC2CCN(Cc3ccccc3)CC2)c1C`, which Potency is on record?
A: inconclusive: 28.2 µM [inhibitor, single point]

Q: For `S=C1NCCOCCOCCOCCNC(=S)N2CCOCCOCCN1CCOCCOCC2`, which Potency is on record?
A: inactive

Q: With `COc1ccc(OC)c(C(C)NC(=O)c2ccco2)c1` (stereo not drawn) as the molecule, how does the Potency read?
A: inconclusive: 31.6 µM [inhibitor, single point]

Q: Which Potency does the source give for `O=C(Nc1ncc(Cc2cccc([N+](=O)[O-])c2)s1)c1ccco1` here?
A: inconclusive: 10 µM [inhibitor, partial curve, poor fit]

Q: With `O=C(Nc1ccc2ccccc2c1)Nc1ccc2snnc2c1` as the molecule, how does the Potency read?
A: inconclusive: 31.6 µM [inhibitor, single point]

Q: With `COc1ccc(C2=NNC(=O)C2(C)Br)cc1` (stereo not drawn) as the molecule, how does the Potency read?
A: inactive

Q: Which Potency does the source give for `COC(=O)CCCCCN1C(=O)/C(=C\c2ccncc2)SC1=S` here?
A: inconclusive: 31.6 µM [inhibitor, single point]

Q: With `Cc1ccc(O)c(-c2cc(-c3cccc(Br)c3)n[nH]2)c1` as the molecule, how does the Potency read?
A: inactive

Q: With `CCOCCCN1CN(Cc2ccccc2)CNC1=S` as the molecule, how does the Potency read?
A: inconclusive: 11.2 µM [inhibitor, single point]

Q: Which Potency does the source give for `COc1cc(/C=C2\SC(=S)N(CCC(=O)N3CCN(C)CC3)C2=O)cc(OC)c1OC` here?
A: inconclusive: 7.94 µM [inhibitor, partial curve]

Q: Which Potency does the source give for `CCc1ccc(CN(C)C(=O)c2cc(COc3ccc(OC)cc3Cl)on2)nc1` here?
A: inactive

Q: With `Cc1ccc(CC(=O)Nc2cccc(C#N)c2)cc1` as the molecule, how does the Potency read?
A: inconclusive: 2.51 µM [inhibitor, partial curve, poor fit]

Q: For `COc1cc(NC(=S)NC(=O)c2ccccc2F)ccc1NC(=O)c1cccs1`, which Potency is on record?
A: inconclusive: 4.47 µM [inhibitor, full curve]

Q: For `CC(C)=N/N=C1/NC(=O)C(c2ccc(Cl)cc2)S1` (stereo not drawn), which Potency is on record?
A: inconclusive: 31.6 µM [inhibitor, single point]

Q: For `CN(C)c1nc(=NCc2cccs2)ss1`, which Potency is on record?
A: inconclusive: 0.891 µM [inhibitor, full curve, poor fit]

Q: With `Cc1cccc2cc3ccccc3nc12` as the molecule, how does the Potency read?
A: inconclusive: 10 µM [inhibitor, single point]

Q: With `Cc1cccc(NC(=S)NCCN(C2CCCCC2)C2CCCC2)c1` as the molecule, how does the Potency read?
A: inconclusive: 11.2 µM [inhibitor, single point]

Q: Which Potency does the source give for `O=C(CNC(=O)c1ccc(Cl)cc1Cl)NCC1CCCO1` (stereo not drawn) here?
A: inconclusive: 2.24 µM [inhibitor, full curve, poor fit]

Q: For `Cc1c(NC(=O)c2cc(-c3cccs3)nc3ccccc23)c(=O)n(-c2ccccc2)n1C`, which Potency is on record?
A: inconclusive: 3.98 µM [inhibitor, partial curve, poor fit]
